According to PubChem BioAssay AID2101 (National Center for Advancing Translational Sciences (NCATS), 2009):
The campaign covered roughly 330,000 compounds. About 300 (0.091%) were called active. The shares of active, inactive and inconclusive entries below differ from those in the screen. Calls come from the whole dose curve; as a rule, active = well fitted inhibition curve with a large enough effect; inconclusive = small, poorly fitted or top-dose-only effect, or effect the other way, or another doubt; inactive = no such curve, though single readings can be large or run the other way. No potency is given beside an inconclusive call; the fits are too rough.
Potency is the fitted concentration of half-maximal effect.
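Throughout, for activity change, negative = inhibition: 0% = full enzyme activity and -100% = no enzyme basal.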

The compounds below were run against Lysosomal acid glucosylceramidase (Homo sapiens) (UniProt P04062) (assay: qHTS Assay for Inhibitors and Activators of N370S glucocerebrosidase as a Potential Chaperone Treatment of Gaucher Disease). Conditions: N370S GC spleen homogenate, 4MU-glucoside fluorescence; activity change, negative = inhibition: at 59.4 µM (top of the series) unless noted.
`COC(=O)c1c(C(=O)OC)c2cc(C(=O)c3ccccc3)ccn2c1Cl` was tested, and the activity change, negative = inhibition was inconclusive: 34.3% [activator]. With `O=C(Cn1[nH]c(=O)c2ccccc2c1=O)Nc1cccc(S(=O)(=O)N2CCCCCC2)c1` the Potency was inconclusive [inhibitor, single point]. With `CN1C(=O)c2ccccc2N(C)C1c1ccc(F)cc1` (stereo not drawn) the Potency was inconclusive [activator, partial curve]. For `Cc1ccc(NC2=NC(c3ccc(O)cc3)n3c(nc(C)cc3=O)N2)cc1` (stereo not drawn), the activity change, negative = inhibition was inconclusive: 38.7% [activator]. `Cc1nn(-c2ccccc2)c2nc(-c3ccco3)cc(C(=O)O)c12` was tested, and the Potency was “inactive”. In the case of `O=C(COc1ccccc1)NC(NC(=S)Nc1ccccc1O)C(Cl)(Cl)Cl` (stereo not drawn), the Potency was inconclusive [activator, partial curve, poor fit]. In the case of `O=C(Nc1ccccc1)C1C(c2ccccc2)C1(Cl)Cl` (stereo not drawn), the Potency was inconclusive [activator, single point]. With `Cc1ccc(NC(=O)C2=C(c3ccccc3)S(=O)(=O)CCS2(=O)=O)cc1` the Potency was “inactive”. For `N#Cc1c(N)n(CCNC(=O)c2cccs2)c2nc3ccccc3nc12`, the Potency was inconclusive [activator, single point]. For `CCOc1ccc2nc(SCC(=O)c3ccc(Cl)s3)sc2c1`, the Potency was inconclusive [activator, partial curve, poor fit]. For `Cc1ccccc1C(=O)O/N=C(\c1ccccc1)c1ccccn1`, the Potency was inconclusive [activator, single point]. For `O=C(c1cccc(C(F)(F)F)c1)C1CCCN(C(=O)/C=C/c2cnc[nH]2)C1` (stereo not drawn), the Potency was inconclusive [inhibitor, single point]. In the case of `COc1ccc(NC(=O)CSc2nc3ccccc3cc2Cc2ccccc2)cc1`, the Potency was inconclusive [activator, partial curve, poor fit]. With `CN(C)c1ccc(-c2nnc(-c3cccnc3)o2)cc1` the Potency was inconclusive [activator, single point]. `CC(=O)Oc1ccccc1C1=NN(C(=O)/C=C/c2ccccc2)C(c2ccccc2)C1` (stereo not drawn) was tested, and the Potency was inconclusive [activator, partial curve]. For `CCOC(=O)/C(C#N)=C/c1ccc(N2CCN(Cc3ccccc3)CC2)cc1`, the Potency was inconclusive [inhibitor, single point]. `COc1ccc(OC)c(Nc2nc(NCCO)c3ccccc3n2)c1` was tested, and the Potency was inconclusive [inhibitor, partial curve, poor fit]. With `Cc1ccc2cc(CN(CC3CCCO3)S(=O)(=O)c3cccc4nsnc34)c(=O)[nH]c2c1` (stereo not drawn) the Potency was inconclusive [activator, partial curve].
